Measured values published in the supplement of paper PMC10126150.
Sequences with one replicate were seen in a single cluster, so their values are uncertain.

The sequences below were run on ATP (assay: switch fluorescence ratio, 500 uM ATP over buffer (Cy3 cluster intensity, sum of 5 cycles each) (fold (ratio)); higher = stronger signal-on switching upon ATP binding; sequences stand for … in TCGTCGGCAGCGTCAGATGTGTATAAGAGACAGTTTTTTTTTTTTTTTTTTTTTTTTT…TC). Conditions: aptamer strand: ATP DNA aptamer (quencher-CACCTGGGGGAGTATTGCGGAGGAAGG + anchor), 100 nM annealed; ATP concentration: 500 uM; one replicate.
Procedure, shortened: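 Clusters with intensities outside 100-1000 RFU were excluded. The remaining Cy3-labelled switching-strand clusters on a modified Illumina MiSeq flow-cell had been annealed to 100 nM quencher-labelled ATP aptamer and imaged in selection buffer, then after 15 min with 500 uM ATP at 22 °C, for five cycles separated by NaOH stripping and re-annealing. The fluorescence ratio, averaged per switch-domain sequence, is each cluster's summed target-cycle Cy3 intensity over its summed buffer-cycle Cy3 intensity.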
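Further: ATP exposure 15 min at 22 °C before imaging.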

**Q.** For TGTCCGCGAG, which switch fluorescence ratio is on record?
**A.** 2.91

**Q.** For TGTCCGCGGA, which switch fluorescence ratio is on record?
**A.** 2.17

**Q.** Which switch fluorescence ratio does the source give for TGTCCGGATA here?
**A.** 1.01

**Q.** How did the switch fluorescence ratio turn out when TGTCCTACGG was run?
**A.** 1.05

**Q.** TGTCGACAAT was tested. Which switch fluorescence ratio did it give?
**A.** 1.03

**Q.** TGTCGATATG was tested. Which switch fluorescence ratio did it give?
**A.** 0.988

**Q.** TGTCGATTCC was tested. Which switch fluorescence ratio did it give?
**A.** 1.06

**Q.** Which switch fluorescence ratio does the source give for TGTCGCCAAT here?
**A.** 0.982

**Q.** How did the switch fluorescence ratio turn out when TGTCGCCAGG was run?
**A.** 1.01

**Q.** TGTCGGCCGC was tested. Which switch fluorescence ratio did it give?
**A.** 1.04

**Q.** With TGTCGGGACA as the sequence, how does the switch fluorescence ratio read?
**A.** 1.01

**Q.** How did the switch fluorescence ratio turn out when TGTCGTAGGT was run?
**A.** 0.951

**Q.** Which switch fluorescence ratio does the source give for TGTCGTGCGC here?
**A.** 0.995

**Q.** Which switch fluorescence ratio does the source give for TGTCGTGTAA here?
**A.** 1.01

**Q.** For TGTCTAAGG, which switch fluorescence ratio is on record?
**A.** 0.982

**Q.** With TGTCTACCTT as the sequence, how does the switch fluorescence ratio read?
**A.** 1.04

**Q.** Which switch fluorescence ratio does the source give for TGTCTAGGGG here?
**A.** 0.99

**Q.** With TGTCTATCGA as the sequence, how does the switch fluorescence ratio read?
**A.** 1

**Q.** How did the switch fluorescence ratio turn out when TGTCTCTGAC was run?
**A.** 1.02

**Q.** Which switch fluorescence ratio does the source give for TGTCTCTTCT here?
**A.** 0.962

**Q.** Which switch fluorescence ratio does the source give for TGTGACCGTA here?
**A.** 1.01

**Q.** TGTGAGCACC was tested. Which switch fluorescence ratio did it give?
**A.** 1.15

**Q.** Which switch fluorescence ratio does the source give for TGTGAGCGCA here?
**A.** 1.01

**Q.** With TGTGAGGA as the sequence, how does the switch fluorescence ratio read?
**A.** 1.04

**Q.** With TGTGCCATGA as the sequence, how does the switch fluorescence ratio read?
**A.** 0.983

**Q.** How did the switch fluorescence ratio turn out when TGTGCGCAAG was run?
**A.** 1.86

**Q.** With TGTGCGCTAA as the sequence, how does the switch fluorescence ratio read?
**A.** 1.06

**Q.** How did the switch fluorescence ratio turn out when TGTGGACGGT was run?
**A.** 0.969

**Q.** For TGTGGAGGCG, which switch fluorescence ratio is on record?
**A.** 1.02

**Q.** TGTGGATTGT was tested. Which switch fluorescence ratio did it give?
**A.** 1.02

**Q.** For TGTGGATTT, which switch fluorescence ratio is on record?
**A.** 1.03

**Q.** With TGTGGCCGAT as the sequence, how does the switch fluorescence ratio read?
**A.** 0.993

**Q.** Which switch fluorescence ratio does the source give for TGTGGCCGTG here?
**A.** 0.976

**Q.** Which switch fluorescence ratio does the source give for TGTGGGCCTA here?
**A.** 0.98

**Q.** With TGTGGGCCTC as the sequence, how does the switch fluorescence ratio read?
**A.** 1.06

**Q.** Which switch fluorescence ratio does the source give for TGTGGGTAGC here?
**A.** 1.02

**Q.** How did the switch fluorescence ratio turn out when TGTGGGTCGA was run?
**A.** 0.959

**Q.** TGTGGTGCAC was tested. Which switch fluorescence ratio did it give?
**A.** 1

**Q.** For TGTGGTTCCT, which switch fluorescence ratio is on record?
**A.** 1.01

**Q.** TGTGTACCCG was tested. Which switch fluorescence ratio did it give?
**A.** 1.01

**Q.** With TGTGTACTTC as the sequence, how does the switch fluorescence ratio read?
**A.** 1.03

**Q.** For TGTGTATAAA, which switch fluorescence ratio is on record?
**A.** 1.02

**Q.** TGTGTGATGT was tested. Which switch fluorescence ratio did it give?
**A.** 0.956

**Q.** Which switch fluorescence ratio does the source give for TGTGTGTTCT here?
**A.** 1.02

**Q.** How did the switch fluorescence ratio turn out when TGTGTTATGC was run?
**A.** 1.02

**Q.** Which switch fluorescence ratio does the source give for TGTGTTGCCG here?
**A.** 1.05

**Q.** How did the switch fluorescence ratio turn out when TGTGTTGCGG was run?
**A.** 0.952

**Q.** Which switch fluorescence ratio does the source give for TGTGTTTCTA here?
**A.** 0.97

**Q.** TGTTAAAGGT was tested. Which switch fluorescence ratio did it give?
**A.** 1.04

**Q.** Which switch fluorescence ratio does the source give for TGTTACAAAT here?
**A.** 1.07

**Q.** For TGTTACCAGT, which switch fluorescence ratio is on record?
**A.** 1.03

**Q.** For TGTTACTT, which switch fluorescence ratio is on record?
**A.** 1.02

**Q.** TGTTAGAAA was tested. Which switch fluorescence ratio did it give?
**A.** 0.96

**Q.** Which switch fluorescence ratio does the source give for TGTTAGGTTT here?
**A.** 0.988

**Q.** For TGTTATGCGA, which switch fluorescence ratio is on record?
**A.** 0.981

**Q.** For TGTTCAAAAT, which switch fluorescence ratio is on record?
**A.** 1.01

**Q.** Which switch fluorescence ratio does the source give for TGTTCACCAC here?
**A.** 1.04

**Q.** Which switch fluorescence ratio does the source give for TGTTCACGGC here?
**A.** 1.03

**Q.** How did the switch fluorescence ratio turn out when TGTTCACTG was run?
**A.** 1.02

**Q.** With TGTTCCTGGT as the sequence, how does the switch fluorescence ratio read?
**A.** 1.01

**Q.** TGTTCCTTAT was tested. Which switch fluorescence ratio did it give?
**A.** 0.99

**Q.** TGTTCGATAA was tested. Which switch fluorescence ratio did it give?
**A.** 0.989

**Q.** Which switch fluorescence ratio does the source give for TGTTCTAAAT here?
**A.** 1.02

**Q.** How did the switch fluorescence ratio turn out when TGTTCTTT was run?
**A.** 0.989

**Q.** For TGTTGAGCGT, which switch fluorescence ratio is on record?
**A.** 0.957

**Q.** Which switch fluorescence ratio does the source give for TGTTGAGCTT here?
**A.** 1.01

**Q.** For TGTTGCGACT, which switch fluorescence ratio is on record?
**A.** 1.06

**Q.** With TGTTGGA as the sequence, how does the switch fluorescence ratio read?
**A.** 1

**Q.** TGTTGGAGC was tested. Which switch fluorescence ratio did it give?
**A.** 1.13

**Q.** How did the switch fluorescence ratio turn out when TGTTGGGGCA was run?
**A.** 0.98

**Q.** With TGTTGGTCCA as the sequence, how does the switch fluorescence ratio read?
**A.** 0.987

**Q.** With TGTTGTACGG as the sequence, how does the switch fluorescence ratio read?
**A.** 1.03

**Q.** With TGTTGTTCAC as the sequence, how does the switch fluorescence ratio read?
**A.** 1

**Q.** How did the switch fluorescence ratio turn out when TGTTTAATC was run?
**A.** 1.03

**Q.** How did the switch fluorescence ratio turn out when TGTTTAGCG was run?
**A.** 0.955

**Q.** Which switch fluorescence ratio does the source give for TGTTTATCTG here?
**A.** 0.989

**Q.** Which switch fluorescence ratio does the source give for TGTTTCCGCA here?
**A.** 2.88

**Q.** How did the switch fluorescence ratio turn out when TGTTTCCGTT was run?
**A.** 1

**Q.** TGTTTCGGTA was tested. Which switch fluorescence ratio did it give?
**A.** 1.01

**Q.** Which switch fluorescence ratio does the source give for TGTTTGAGAG here?
**A.** 1.04

**Q.** Which switch fluorescence ratio does the source give for TGTTTTAGCA here?
**A.** 1.01

**Q.** How did the switch fluorescence ratio turn out when TGTTTTTATG was run?
**A.** 0.988

**Q.** For TTAAACAAGT, which switch fluorescence ratio is on record?
**A.** 0.956

**Q.** With TTAAAGTTGG as the sequence, how does the switch fluorescence ratio read?
**A.** 0.969

**Q.** TTAAAGTTTC was tested. Which switch fluorescence ratio did it give?
**A.** 1.03

**Q.** TTAAATCCTA was tested. Which switch fluorescence ratio did it give?
**A.** 0.995

**Q.** TTAAATCTAA was tested. Which switch fluorescence ratio did it give?
**A.** 0.938

**Q.** With TTAAATTTG as the sequence, how does the switch fluorescence ratio read?
**A.** 0.978

**Q.** TTAACACTTT was tested. Which switch fluorescence ratio did it give?
**A.** 1.04

**Q.** TTAACAGCAC was tested. Which switch fluorescence ratio did it give?
**A.** 1.36

**Q.** For TTAACAGCAG, which switch fluorescence ratio is on record?
**A.** 1.06

**Q.** For TTAACATTAT, which switch fluorescence ratio is on record?
**A.** 1.01

**Q.** How did the switch fluorescence ratio turn out when TTAACCGGAT was run?
**A.** 0.95

**Q.** For TTAACGCACT, which switch fluorescence ratio is on record?
**A.** 1.95

**Q.** Which switch fluorescence ratio does the source give for TTAACGCCGG here?
**A.** 0.946

**Q.** With TTAACGGCCC as the sequence, how does the switch fluorescence ratio read?
**A.** 1.91

**Q.** TTAACTAACT was tested. Which switch fluorescence ratio did it give?
**A.** 1.05

**Q.** With TTAAGAAAGG as the sequence, how does the switch fluorescence ratio read?
**A.** 0.994

**Q.** TTAAGAAGTT was tested. Which switch fluorescence ratio did it give?
**A.** 1.04

**Q.** Which switch fluorescence ratio does the source give for TTAAGAGGCT here?
**A.** 1.04

**Q.** TTAAGCAGGA was tested. Which switch fluorescence ratio did it give?
**A.** 1
